# Measurements from PubChem BioAssay (NCATS).
# This list was built around the results that the source calls inconclusive (neither active nor inactive); the mix of calls is not that of the screen. For part of these data: Potencies beside an inconclusive call are fits to weak or partial responses and may not hold up. A structure can be active in one record and inactive in another. Active and inactive are the calls of the source. Unless noted, calls follow the shape of the dose curve; as a rule, active = well fitted curve in the direction sought with a large enough effect; inconclusive = small, poorly fitted or top-dose-only effect, or another doubt; inactive = no such curve, though single readings can be large; an effect the other way counts as inactive or inconclusive.
# Columns and labels:
# [1] = NFAT Signaling Pathway (AID 444; active = well fitted curve in either direction with a large enough effect, not every such curve was filed as active; inconclusive = small, poorly fitted or top-dose-only effect, or another doubt;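 also: carbachol stimulus at about its EC50 of 1 µM final; % is scaled to controls: 0 for no effect and ±100 for the full control effect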); conditions: Jurkat NFAT-bla M1, carbachol, beta-lactamase ratio, 5 h; at 7.69 µM (top of the series) unless noted
# How it was run: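 Jurkat cells carrying an NFAT-driven β-lactamase reporter and co-transfected muscarinic M1 receptor were treated with compound plus carbachol (1 uM final, an EC50 level) for 5 h at 37 °C. CCF4 loading followed for 1 h at RT; 460/530 nm ratio gave %activity.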
# [2] = target: 3',5'-cyclic-AMP phosphodiesterase 4B (Homo sapiens) (UniProt Q07343); assay: qHTS Assay for Inhibitors of PDE-IV (AID 607; active = well fitted activation curve with a large enough effect in the main read-out, with a control signal flat, not every such curve was filed as active; inconclusive = small, poorly fitted or top-dose-only effect, or effect the other way, or a change in a side signal; also: potency is read from the fitted curve at half-maximal effect; as to activation (PDE inhibition): % of control where 0% means no effect); conditions: HEK293 ACTOne CNG channel cells, membrane potential fluorescence; activation (PDE inhibition): at 22.9 µM (top of the series)
# How it was run: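 Cell-based read-out of cAMP via a modified cyclic nucleotide-gated channel and membrane potential dye (535/590 nm) in HEK293 cells expressing PDE4 endogenously. Compounds tested up to 22.9 uM final; 100 uM RO 20-1724 reference.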
# [3] = qHTS Assay for Identification of Small Molecule Agonists for Hypoxia Response Element Signaling Pathway (AID 914; active = well fitted activation curve with a large enough effect in the signal ratio, with a control signal flat, not every such curve was filed as active; inconclusive = small, poorly fitted or top-dose-only effect, or effect the other way, or a change in a side signal; the % refers to the signal ratio; also: potency is read from the fitted curve at half-maximal effect; as to activation: top concentration of the series differs between compounds; % of control where 0% means no effect); conditions: ME-180 (cervical carcinoma) HRE-bla reporter, beta-lactamase ratio, CoCl2, 17 h; activation: active compounds read high
# How it was run: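 HRE-bla ME-180 cells, overnight plating in Opti-MEM with 0.5% dialyzed FBS; cpd titration + EC50 CoCl2, 17 h, 37 degrees Celsius; CCF4 2.5 h RT; 460/530 nm ratio; AC50.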
# [4] = Primary qHTS for small molecule stabilizers of the endoplasmic reticulum resident proteome: Secreted ER Calcium Modulated Protein (SERCaMP) assay (AID 1508630); conditions: SH-SY5Y GLuc-SERCaMP (Gaussia luciferase released on ER calcium loss) secretion, thapsigargin, luminescence; activity change, negative = inhibition: at 38.4 µM (top of the series) unless noted; also: potency is read from the fitted curve at half-maximal effect; as to activity change, negative = inhibition: % is scaled to controls: 0 for no effect and ±100 for the full control effect
# How it was run: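 The SH-SY5Y reporter protocol was run at 3 concentrations up to 38.3 uM (primary) or 11 concentrations (follow-up): 16 h compound, 100 nM thapsigargin for 4 h, then extracellular luciferase luminescence.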
# [5] = target: Mitogen-activated protein kinase 10 (Mus musculus) (UniProt Q61831); assay: JNK3 AlphaScreen Assay (AID 530; active = well fitted curve in either direction with a large enough effect, not every such curve was filed as active; inconclusive = small, poorly fitted or top-dose-only effect, or another doubt;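 also: kinase came from lysate of stimulated human HepG2 cells; signal reports phosphorylation of biotinylated GST-cJun 1-79 at Ser73 with 10 µM ATP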; also: potency is read from the fitted curve at half-maximal effect; as to activity change, negative = inhibition: % is scaled to controls: 0 for no effect and ±100 for the full control effect); conditions: JNK3 lysate, c-Jun phosphorylation; activity change, negative = inhibition: at 57.1 µM (top of the series)
# How it was run: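 Biotinylated GST-cJun(1-79) served as substrate for JNK3 in HepG2 lysates stimulated with IL-1beta and TNF-alpha. ATP was 10 uM final, pH 7.6. Ser73 phosphorylation was quantified by AlphaScreen (680 nm excitation).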
# [6] = target: Cytochrome P450 2C19 (Homo sapiens) (UniProt P33261); assay: qHTS Assay for Inhibitors and Substrates of Cytochrome P450 2C19 (AID 899); also: potency is read from the fitted curve at half-maximal effect; nearly all actives have a fitted effect of over 60% in size
# How it was run: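 Human CYP2C19 (5nM) with Luciferin-H EGE at 10uM (its KM) in 50mM KPO4 was preincubated with compound for 10 min at 37C. NADPH regeneration started a 60 min 37C reaction. Luciferin was read by luminescence, normalized to 57uM ketoconazole.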
# [7] = target: Ubiquitin carboxyl-terminal hydrolase 1 (Homo sapiens) (UniProt O94782); assay: Inhibitors of USP1/UAF1: Pilot qHTS (AID 504865);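 also: rhodamine fluorescence freed from ubiquitin-rhodamine substrate followed over time; potency is read from the fitted curve at half-maximal effect; nearly all actives have a fitted effect of over 35% in size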
# How it was run: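 USP1/UAF1 complex (1nM) preincubated with compound 15 min at room temperature, then Ub-Rho substrate (150nM final) added. Fluorescence read kinetically at 480/540 nm, 6 reads every 60 seconds. Buffer: 50mM HEPES pH 7.8, 0.5mM EDTA, 0.1 mg/ml BSA, 1mM TCEP, 0.01% Tween-20.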
# [8] = target: Cytochrome P450 3A4 (Homo sapiens) (UniProt P08684); assay: qHTS Assay for Inhibitors and Substrates of Cytochrome P450 3A4 (AID 884); conditions: recombinant CYP3A4, Luciferin-PPXE luminescence; activity change, negative = inhibition: at 57.1 µM (top of the series); also: potency is read from the fitted curve at half-maximal effect; nearly all actives have a fitted effect of over 50% in size
# How it was run: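 Luminescent readout of luciferin produced by CYP3A4 (20 nM) dealkylation of Luciferin-PPXE, 25 uM (its KM). NADPH-driven reaction ran 60 min at RT after 10 min compound preincubation; data scaled to 57 uM ketoconazole as 100% inhibition.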
# Tags tell the direction and shape of the fitted curve or compound fluorescence and quenching.
# Sequence of UniProt Q07343 (Q07343 whole entry, looked up): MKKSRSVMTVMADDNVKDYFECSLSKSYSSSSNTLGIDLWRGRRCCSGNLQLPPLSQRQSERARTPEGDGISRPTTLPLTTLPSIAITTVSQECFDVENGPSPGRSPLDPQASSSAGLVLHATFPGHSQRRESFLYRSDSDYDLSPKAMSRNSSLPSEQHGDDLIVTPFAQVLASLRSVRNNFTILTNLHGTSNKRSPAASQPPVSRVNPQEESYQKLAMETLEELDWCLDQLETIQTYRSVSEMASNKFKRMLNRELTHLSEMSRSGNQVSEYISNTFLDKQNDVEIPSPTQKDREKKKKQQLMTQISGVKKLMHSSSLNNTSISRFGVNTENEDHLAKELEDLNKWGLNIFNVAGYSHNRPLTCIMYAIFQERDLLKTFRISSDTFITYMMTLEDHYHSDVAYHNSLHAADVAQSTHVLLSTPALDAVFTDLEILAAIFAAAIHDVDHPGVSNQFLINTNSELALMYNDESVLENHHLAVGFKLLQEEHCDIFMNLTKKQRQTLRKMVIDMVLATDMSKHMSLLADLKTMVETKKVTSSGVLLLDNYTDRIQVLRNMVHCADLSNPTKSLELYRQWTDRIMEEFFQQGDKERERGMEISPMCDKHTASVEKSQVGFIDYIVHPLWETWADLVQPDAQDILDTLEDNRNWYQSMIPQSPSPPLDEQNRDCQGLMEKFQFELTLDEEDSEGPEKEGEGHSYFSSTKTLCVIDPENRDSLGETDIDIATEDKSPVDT
# Sequence of UniProt P33261 (P33261 whole entry, looked up): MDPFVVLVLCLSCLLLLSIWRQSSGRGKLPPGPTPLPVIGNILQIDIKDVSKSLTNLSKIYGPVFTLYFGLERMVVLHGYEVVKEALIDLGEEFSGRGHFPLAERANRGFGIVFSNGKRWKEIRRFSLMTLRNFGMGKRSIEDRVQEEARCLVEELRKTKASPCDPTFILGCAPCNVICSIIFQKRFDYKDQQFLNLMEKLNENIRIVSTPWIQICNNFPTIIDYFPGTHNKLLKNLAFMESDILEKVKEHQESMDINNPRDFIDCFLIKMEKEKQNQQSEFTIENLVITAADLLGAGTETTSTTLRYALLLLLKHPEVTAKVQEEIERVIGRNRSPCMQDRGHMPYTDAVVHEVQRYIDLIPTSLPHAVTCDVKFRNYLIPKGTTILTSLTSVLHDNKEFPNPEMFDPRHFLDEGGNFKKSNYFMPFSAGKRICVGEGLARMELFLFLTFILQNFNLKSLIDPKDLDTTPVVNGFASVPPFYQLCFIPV
# Sequence of UniProt P08684 (P08684 whole entry, looked up): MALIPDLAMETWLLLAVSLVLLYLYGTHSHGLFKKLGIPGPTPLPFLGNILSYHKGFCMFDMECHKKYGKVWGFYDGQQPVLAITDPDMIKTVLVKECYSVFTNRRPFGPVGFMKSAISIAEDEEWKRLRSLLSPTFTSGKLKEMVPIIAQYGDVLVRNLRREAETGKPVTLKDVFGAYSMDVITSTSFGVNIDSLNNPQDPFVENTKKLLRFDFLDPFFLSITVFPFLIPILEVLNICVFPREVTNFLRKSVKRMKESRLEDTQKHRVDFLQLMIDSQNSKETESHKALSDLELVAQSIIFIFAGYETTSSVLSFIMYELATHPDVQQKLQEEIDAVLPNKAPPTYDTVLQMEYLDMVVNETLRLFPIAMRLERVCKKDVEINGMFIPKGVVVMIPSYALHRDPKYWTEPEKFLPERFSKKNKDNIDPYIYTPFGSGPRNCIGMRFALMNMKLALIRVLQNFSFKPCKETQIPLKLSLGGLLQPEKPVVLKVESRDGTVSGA
# Sequence of UniProt O94782 (O94782 whole entry, looked up): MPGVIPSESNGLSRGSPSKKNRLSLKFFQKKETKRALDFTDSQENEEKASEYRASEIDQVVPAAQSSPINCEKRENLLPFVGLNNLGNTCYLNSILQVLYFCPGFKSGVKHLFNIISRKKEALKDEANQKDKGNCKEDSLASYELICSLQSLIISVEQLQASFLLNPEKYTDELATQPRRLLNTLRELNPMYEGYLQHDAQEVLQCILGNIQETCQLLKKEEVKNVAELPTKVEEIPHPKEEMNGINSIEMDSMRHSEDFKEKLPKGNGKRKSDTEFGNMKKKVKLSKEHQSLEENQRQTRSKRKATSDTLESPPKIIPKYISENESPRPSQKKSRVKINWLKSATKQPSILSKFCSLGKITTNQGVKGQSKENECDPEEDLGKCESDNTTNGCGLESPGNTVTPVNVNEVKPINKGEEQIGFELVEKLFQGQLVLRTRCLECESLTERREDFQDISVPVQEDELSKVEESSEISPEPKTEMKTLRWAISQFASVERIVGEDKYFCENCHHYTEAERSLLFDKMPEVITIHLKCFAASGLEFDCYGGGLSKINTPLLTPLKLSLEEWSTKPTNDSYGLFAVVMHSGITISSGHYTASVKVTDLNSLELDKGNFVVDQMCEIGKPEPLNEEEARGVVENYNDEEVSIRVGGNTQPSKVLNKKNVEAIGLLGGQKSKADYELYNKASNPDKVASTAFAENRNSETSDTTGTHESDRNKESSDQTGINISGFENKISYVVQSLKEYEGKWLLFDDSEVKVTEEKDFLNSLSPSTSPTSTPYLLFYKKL
structure (smiles),measurement,setting,value
Cc1noc(C)c1C(=O)N1CCC2(CC1)CCN(C(c1ccccc1)c1ccccc1)CC2,"activity change, negative = inhibition",[1],inconclusive: -61% [inhibitor]
same,Potency,[2],"inconclusive: 3.16 µM [activator, single point]"
same,activation,[3],inactive: -2.4%
same,Potency,[4],inactive
CC(C)NC[C@H](O)c1ccc2ccccc2c1,"activity change, negative = inhibition",[1],inactive: -18.4% [at 17.2 µM]
same,Potency,[2],"inconclusive: 9.51 µM [activator, partial curve, poor fit]"
same,Potency,[3],"inconclusive: 0.0158 µM [inhibitor, full curve, poor fit]"
same,Potency,[4],inactive
COc1ccc2[nH]cc(CCNc3ncncc3-c3ccccc3OC)c2c1,"activity change, negative = inhibition",[1],inactive: -9.5%
same,Potency,[5],inactive
same,Potency,[6],active: 0.0794 µM
same,Potency,[3],"inconclusive: 3.16 µM [inhibitor, single point]"
same,Potency,[4],"inconclusive: 28.2 µM [inhibitor, single point]"
CC(C)CN1CC[C@@]2(CCCN(C(=O)c3cc(C(F)(F)F)cc(C(F)(F)F)c3)C2)C1,"activity change, negative = inhibition",[1],inconclusive: -36.2% [inhibitor]
same,Potency,[2],inactive
same,Potency,[4],"inconclusive: 28.2 µM [inhibitor, single point]"
COCCn1c(=O)c(-c2cccs2)nc2cnc(Oc3ccc(OC)cc3)nc21,"activity change, negative = inhibition",[1],inactive: 15.8%
same,Potency,[5],"inconclusive: 15.8 µM [activator, partial curve]"
same,Potency,[3],"inconclusive: 3.16 µM [activator, single point]"
same,Potency,[4],"inconclusive: 7.08 µM [inhibitor, partial curve, poor fit]"
Cc1cccc(CNc2ccnc(-c3ccc(N(C)C)cc3)n2)c1,"activity change, negative = inhibition",[1],inconclusive: -42.3% [inhibitor]
same,Potency,[2],"inconclusive: 10 µM [activator, single point]"
same,Potency,[3],"inconclusive: 5.01 µM [inhibitor, single point]"
same,Potency,[7],"inconclusive: 44.7 µM [inhibitor, partial curve]"
same,Potency,[4],"inconclusive: 28.2 µM [inhibitor, single point]"
COc1cccc(-c2nc(NCc3ccccc3OC)c3ccccc3n2)c1,"activity change, negative = inhibition",[1],inconclusive: -64.5% [inhibitor]
same,Potency,[2],"inconclusive: 3.98 µM [activator, partial curve]"
same,Potency,[3],"inconclusive: 6.31 µM [inhibitor, single point]"
same,Potency,[4],inactive
CCN(CC)CCOC(=O)C1(c2ccc([N+](=O)[O-])cc2)CCCC1,"activity change, negative = inhibition",[1],inconclusive: -68% [inhibitor] [at 17.2 µM]
same,Potency,[2],active: 4.77 µM
same,Potency,[4],"inconclusive: 28.2 µM [inhibitor, single point]"
O=C(Oc1ccccc1)N1CCC2(CC1)CN(c1ccccc1)C2,"activity change, negative = inhibition",[1],inactive: -1.1%
same,Potency,[5],"inconclusive: 25.1 µM [inhibitor, partial curve]"
same,Potency,[4],inactive
COc1ccccc1-c1nc(Nc2ccncc2)c2ccccc2n1,"activity change, negative = inhibition",[1],inconclusive: 6.03% [activator]
same,Potency,[2],"inconclusive: 6.31 µM [activator, partial curve]"
same,Potency,[8],"inconclusive: 3.16 µM [inhibitor, full curve]"
same,Potency,[4],"inconclusive: 22.4 µM [inhibitor, single point]"
